For 38 molecules, cytotoxicity call and growth inhibition call results are on record in the antibiotic and cytotoxicity screens of Wong et al. (2023).

The other results are listed elsewhere or left out.

In one test the test system is HSkMC (human skeletal muscle cells). Description: cytotoxicity call (relative viability < 0.9). To be noted: 10 µM.
Take `Cc1[nH]c2ccccc2c1CN(C)C`: the cytotoxicity call is “inactive”.

For `Nc1ccncc1`, the cytotoxicity call was “inactive”.

Regarding `CC1=C2CC3C(CC=C4CC(O)CCC43C)C2CCC12OC1CC(C)CNC1C2C` (configuration not stated), the cytotoxicity call is “inactive”.

As to `C[C@@]1(O)[C@H](O)[C@@H](CO)O[C@H]1n1ccc2c(N)ncnc21`, the cytotoxicity call was “inactive”.

Take `CCOC(OCC)P(=O)(O)CCCN`: the cytotoxicity call is “inactive”.

In the case of `CCCCCCCCC(=O)NCc1ccc(O)c(OC)c1`, the cytotoxicity call was “inactive”.

As for `c1cn(C[C@H]2CC[C@H]3NCCO[C@@H]23)cn1`, the cytotoxicity call was “inactive”.

As to `CC[N+]1(C)CCCC(OC(=O)C(O)(c2ccccc2)c2ccccc2)C1.[Br-]` (configuration not stated), the cytotoxicity call is “inactive”.

With `NC[C@@H](CC(=O)O)c1ccc(Cl)cc1`, the cytotoxicity call is “inactive”.

Take `O=[N+]([O-])C(Br)(CO)CO`: the cytotoxicity call was “active”.

For `CN(C)[C@@H]1C(=O)[C@H](C(N)=O)C(=O)[C@@]2(O)C(=O)[C@@H]3C(=O)c4c(O)cccc4[C@@](C)(O)[C@H]3C[C@@H]12`, the cytotoxicity call is “inactive”.

In the case of `NNCc1ccccc1`, the cytotoxicity call is “inactive”.

Turning to `NC(=O)CN1C[C@H](O)CC1=O`, the cytotoxicity call is “inactive”.

`[N-]=[N+]=NCc1ccccc1C[C@]1(C(=O)NCCN2CCOCC2)N=C(c2ccc(OCCCO)cc2)O[C@H]1c1ccccc1N=[N+]=[N-]`: the cytotoxicity call is “inactive”.

On to `COS(C)(=O)=O`, for which the cytotoxicity call was “inactive”.

With `O=c1c(O)c(-c2ccc(O)c(O)c2)oc2c(O)c(O)cc(O)c12`, the cytotoxicity call was “inactive”.

The subject of a further test is HepG2. Nature of the test: cytotoxicity call (relative viability < 0.9). To be noted: 10 µM.
For `C[C@H](N)[C@H](O)c1ccc(O)c(O)c1`, the cytotoxicity call is “inactive”.

Turning to `C=CCOC(=O)[C@@H]1[C@H](C(=O)OC)N(C)[C@@H](c2ccccc2)[C@]12C(=O)Nc1ccc(I)cc12`, the cytotoxicity call is “inactive”.

In the case of `NCCc1c[nH]c2ccc(OCC(=O)O)cc12`, the cytotoxicity call is “inactive”.

As to `CCC1(c2ccccc2)C(=O)NC(=O)NC1=O`, the cytotoxicity call was “inactive”.

For the molecule `CN1CCO[C@H]2CN(c3ncccn3)C[C@@H]21`, the cytotoxicity call was “inactive”.

With `CC(C)c1csc(CCN)n1`, the cytotoxicity call was “inactive”.

In the case of `Cc1cc[n+](C)cc1`, the cytotoxicity call is “inactive”.

Turning to `CNC(C)C(O)c1ccccc1.Cl` (configuration not stated), the cytotoxicity call was “inactive”.

Take `COC(=O)C[C@@H]1CC[C@H]2NC[C@@H](O)COC[C@@H]2O1`: the cytotoxicity call was “inactive”.

Regarding `CCC1(C2=NCCN2)Cc2ccccc2O1.Cl` (configuration not stated), the cytotoxicity call is “inactive”.

Take `[N-]=[N+]=Nc1ccccc1C[C@@]1(C(=O)NCc2ccccc2)N=C(c2ccc(OCCCO)cc2)O[C@@H]1c1ccccc1N=[N+]=[N-]`: the cytotoxicity call is “inactive”.

As to `C=CCc1ccc2c(c1)OCO2`, the cytotoxicity call was “active”.

On to `CC(C)c1ccc2c(c1)[C@H](O)[C@H](N)CCO2`, for which the cytotoxicity call is “inactive”.

As to `N[C@@H]1C[C@H]1c1ccccc1`, the cytotoxicity call was “inactive”.

As for `Cc1nccc2c1[nH]c1ccccc12`, the cytotoxicity call is “active”.

As for `NC(=O)CN1CCCC1=O`, the cytotoxicity call is “inactive”.

Turning to `CC1=C2CCC3C4CCC(=O)C4(C)CCC3C2(C)CCC1=O` (configuration not stated), the cytotoxicity call is “inactive”.

Regarding `CC(C)(N)Cc1ccccc1`, the cytotoxicity call was “inactive”.

On to `c1ccc2sc(C3(N4CCCCC4)CCCCC3)cc2c1`, for which the cytotoxicity call was “inactive”.

Regarding `COC(C)(C)CCCC(C)CC=CC(C)=CC(=O)OC(C)C` (configuration not stated), the cytotoxicity call is “inactive”.

With `Cn1cc(NC(=O)c2cc(NC(=O)CNC(=N)N)cn2C)cc1C(=O)NCCC(=N)N`, the cytotoxicity call was “inactive”.

Regarding `O=c1ccc(=O)[nH][nH]1`, the cytotoxicity call is “inactive”.

With `Cc1[nH]c2ccccc2c1CN(C)C`, the cytotoxicity call was “inactive”.

On to `Nc1ccncc1`, for which the cytotoxicity call was “inactive”.

Consider `CC1=C2CC3C(CC=C4CC(O)CCC43C)C2CCC12OC1CC(C)CNC1C2C` (configuration not stated), for which the cytotoxicity call is “inactive”.

For `C[C@@]1(O)[C@H](O)[C@@H](CO)O[C@H]1n1ccc2c(N)ncnc21`, the cytotoxicity call is “inactive”.

Turning to `CCOC(OCC)P(=O)(O)CCCN`, the cytotoxicity call was “inactive”.

As for `CCCCCCCCC(=O)NCc1ccc(O)c(OC)c1`, the cytotoxicity call was “inactive”.

Turning to `c1cn(C[C@H]2CC[C@H]3NCCO[C@@H]23)cn1`, the cytotoxicity call is “inactive”.

Regarding `CC[N+]1(C)CCCC(OC(=O)C(O)(c2ccccc2)c2ccccc2)C1.[Br-]` (configuration not stated), the cytotoxicity call is “inactive”.

As to `NC[C@@H](CC(=O)O)c1ccc(Cl)cc1`, the cytotoxicity call is “inactive”.

`O=[N+]([O-])C(Br)(CO)CO`: the cytotoxicity call is “active”.

For `CN(C)[C@@H]1C(=O)[C@H](C(N)=O)C(=O)[C@@]2(O)C(=O)[C@@H]3C(=O)c4c(O)cccc4[C@@](C)(O)[C@H]3C[C@@H]12`, the cytotoxicity call was “inactive”.

In the case of `NNCc1ccccc1`, the cytotoxicity call was “inactive”.

Turning to `NC(=O)CN1C[C@H](O)CC1=O`, the cytotoxicity call was “inactive”.

For `[N-]=[N+]=NCc1ccccc1C[C@]1(C(=O)NCCN2CCOCC2)N=C(c2ccc(OCCCO)cc2)O[C@H]1c1ccccc1N=[N+]=[N-]`, the cytotoxicity call is “active”.

For the molecule `COS(C)(=O)=O`, the cytotoxicity call was “inactive”.

Regarding `O=c1c(O)c(-c2ccc(O)c(O)c2)oc2c(O)c(O)cc(O)c12`, the cytotoxicity call is “inactive”.

The test system of a further test is S. aureus RN4220. Description: growth inhibition call (relative growth <= 0.2). To be noted: 50 µM.
As for `C[C@H](N)[C@H](O)c1ccc(O)c(O)c1`, the growth inhibition call is “inactive”.

As for `C=CCOC(=O)[C@@H]1[C@H](C(=O)OC)N(C)[C@@H](c2ccccc2)[C@]12C(=O)Nc1ccc(I)cc12`, the growth inhibition call is “inactive”.

As to `NCCc1c[nH]c2ccc(OCC(=O)O)cc12`, the growth inhibition call is “inactive”.

With `CCC1(c2ccccc2)C(=O)NC(=O)NC1=O`, the growth inhibition call is “inactive”.

In the case of `CN1CCO[C@H]2CN(c3ncccn3)C[C@@H]21`, the growth inhibition call is “inactive”.

As to `CC(C)c1csc(CCN)n1`, the growth inhibition call is “inactive”.

On to `Cc1cc[n+](C)cc1`, for which the growth inhibition call is “inactive”.

Regarding `CNC(C)C(O)c1ccccc1.Cl` (configuration not stated), the growth inhibition call is “inactive”.

As for `COC(=O)C[C@@H]1CC[C@H]2NC[C@@H](O)COC[C@@H]2O1`, the growth inhibition call was “inactive”.

In the case of `CCC1(C2=NCCN2)Cc2ccccc2O1.Cl` (configuration not stated), the growth inhibition call is “inactive”.

With `[N-]=[N+]=Nc1ccccc1C[C@@]1(C(=O)NCc2ccccc2)N=C(c2ccc(OCCCO)cc2)O[C@@H]1c1ccccc1N=[N+]=[N-]`, the growth inhibition call is “inactive”.

Regarding `C=CCc1ccc2c(c1)OCO2`, the growth inhibition call was “inactive”.

Turning to `CC(C)c1ccc2c(c1)[C@H](O)[C@H](N)CCO2`, the growth inhibition call was “inactive”.

For the molecule `N[C@@H]1C[C@H]1c1ccccc1`, the growth inhibition call was “inactive”.

For the molecule `Cc1nccc2c1[nH]c1ccccc12`, the growth inhibition call is “inactive”.

For the molecule `NC(=O)CN1CCCC1=O`, the growth inhibition call is “inactive”.

`CC1=C2CCC3C4CCC(=O)C4(C)CCC3C2(C)CCC1=O` (configuration not stated): the growth inhibition call was “inactive”.

On to `CC(C)(N)Cc1ccccc1`, for which the growth inhibition call was “inactive”.

`c1ccc2sc(C3(N4CCCCC4)CCCCC3)cc2c1`: the growth inhibition call is “inactive”.

In the case of `COC(C)(C)CCCC(C)CC=CC(C)=CC(=O)OC(C)C` (configuration not stated), the growth inhibition call was “inactive”.

Consider `Cn1cc(NC(=O)c2cc(NC(=O)CNC(=N)N)cn2C)cc1C(=O)NCCC(=N)N`, for which the growth inhibition call was “inactive”.

With `O=c1ccc(=O)[nH][nH]1`, the growth inhibition call is “inactive”.

Take `Cc1[nH]c2ccccc2c1CN(C)C`: the growth inhibition call was “inactive”.

Take `Nc1ccncc1`: the growth inhibition call is “inactive”.

For `CC1=C2CC3C(CC=C4CC(O)CCC43C)C2CCC12OC1CC(C)CNC1C2C` (configuration not stated), the growth inhibition call was “inactive”.

In the case of `C[C@@]1(O)[C@H](O)[C@@H](CO)O[C@H]1n1ccc2c(N)ncnc21`, the growth inhibition call is “inactive”.

In the case of `CCOC(OCC)P(=O)(O)CCCN`, the growth inhibition call is “inactive”.

For `CCCCCCCCC(=O)NCc1ccc(O)c(OC)c1`, the growth inhibition call was “inactive”.

Regarding `c1cn(C[C@H]2CC[C@H]3NCCO[C@@H]23)cn1`, the growth inhibition call is “inactive”.

`CC[N+]1(C)CCCC(OC(=O)C(O)(c2ccccc2)c2ccccc2)C1.[Br-]` (configuration not stated): the growth inhibition call was “inactive”.

For the molecule `NC[C@@H](CC(=O)O)c1ccc(Cl)cc1`, the growth inhibition call was “inactive”.

With `O=[N+]([O-])C(Br)(CO)CO`, the growth inhibition call was “active”.

For the molecule `CN(C)[C@@H]1C(=O)[C@H](C(N)=O)C(=O)[C@@]2(O)C(=O)[C@@H]3C(=O)c4c(O)cccc4[C@@](C)(O)[C@H]3C[C@@H]12`, the growth inhibition call was “active”.

Regarding `NNCc1ccccc1`, the growth inhibition call is “inactive”.

Regarding `NC(=O)CN1C[C@H](O)CC1=O`, the growth inhibition call was “inactive”.

Consider `[N-]=[N+]=NCc1ccccc1C[C@]1(C(=O)NCCN2CCOCC2)N=C(c2ccc(OCCCO)cc2)O[C@H]1c1ccccc1N=[N+]=[N-]`, for which the growth inhibition call is “inactive”.

Take `COS(C)(=O)=O`: the growth inhibition call was “inactive”.

With `O=c1c(O)c(-c2ccc(O)c(O)c2)oc2c(O)c(O)cc(O)c12`, the growth inhibition call was “inactive”.
